Hit rate of the full screen: of about 420,000 compounds, about 50,000 (12%) were called active. Inconclusive means that the source gave no clear call. Such entries were picked first, then a sample of the others. The call rests on the fitted dose curve; in most records, active means well fitted inhibition curve with a large enough effect; inconclusive means small, poorly fitted or top-dose-only effect; inactive means flat fitted curve, though single readings scatter. No potency is given beside an inconclusive call; the fits are too rough.
Test: qHTS for Inhibitors of human tyrosyl-DNA phosphodiesterase 1 (TDP1): qHTS in cells in presence of CPT; further: nearly all actives have a fitted effect of over 55% in size
Conditions: chicken DT40 Tdp1-/-;hTDP1 cells + 20 nM CPT, ATP luminescence, 48 h; series mostly up to 46.2 µM
Method in brief: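 Chicken DT40 Tdp1-/- cells complemented with human TDP1, 400 cells/well, exposed to compounds plus 20 nM camptothecin for at least 48 h at 37 C; viability read as ATP content by CellTiter-Glo luminescence.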
With `N#CCCn1c(=O)cnc2cnc(Nc3ccccc3)nc21` the Potency was inconclusive [inhibitor, partial curve].
In the case of `CC1C(=O)N(Cc2ccccc2)c2ccccc2N1C(=O)c1ccccc1` (stereo unspecified), the Potency is reported as active: 23.1 µM.
With `CCOc1ccc(OCC)c(Nc2nc3ccc(Cl)cc3n3cnnc23)c1` the Potency was inconclusive [inhibitor, single point].
In the case of `O=S1(=O)N[C@@H](CC2CCCCC2)COc2cc(Br)ccc21`, the Potency is reported as active: 14.6 µM.
With `COc1ccc2c3c(n(C(=O)OC(C)(C)C)c2c1)C1CC=C(COC(C)=O)CN1CC3` (stereo unspecified) the Potency was active: 16.4 µM.
For `CC(C)CN(CCNC(=O)c1cc(-c2ccc(Cl)s2)nc2ccccc12)CC(C)C`, the Potency was “inactive”.
In the case of `CCOC(=O)NC1(NC2CCCCC2)Oc2ccccc2O1`, the Potency is reported as inconclusive [inhibitor, single point].
In the case of `CCN(CCn1cccn1)Cc1nc(-c2ccc(OC)cc2)no1`, the Potency is reported as inconclusive [inhibitor, single point].
In the case of `CCCN(C(=O)Cn1cc(S(=O)(=O)N2CCN(c3ccccc3F)CC2)c2ccccc2c1=O)c1cccc(C)c1`, the Potency is reported as inconclusive [inhibitor, partial curve].
With `CC1CCCN(C(=O)Cn2nnc(-c3ccc(F)cc3)n2)C1` (stereo unspecified) the Potency was “inactive”.
With `COC(=O)c1cc2ccc(OC)cc2c2cc(OC)c(OC)cc12` the Potency was inconclusive [inhibitor, single point].
With `CN1C(=O)C2(OCC(CO)([N+](=O)[O-])CO2)c2ccccc21` (stereo unspecified) the Potency was “inactive”.
In the case of `CC(C)(C)C(=O)Cn1c(=O)n(-c2ccc(Cl)c(Cl)c2)c(=O)c2c3c(sc21)CCCC3`, the Potency is reported as inconclusive [inhibitor, partial curve].
For `COc1cnc(-c2ccccn2)nc1Oc1cccc(Cl)c1`, the Potency was active: 18.4 µM.
In the case of `O=C(NC1CCCC1)C1CCCN(S(=O)(=O)c2ccc(F)cc2)C1` (stereo unspecified), the Potency is reported as “inactive”.
In the case of `CCCCN1C(=O)C(=O)N(CC(=O)Nc2cc(S(=O)(=O)N(C)C)ccc2C)C1=O`, the Potency is reported as inconclusive [inhibitor, partial curve, poor fit].
In the case of `CCOC(=O)c1cnc2ccc(C)cc2c1Nc1ccc(N2CCOCC2)cc1`, the Potency is reported as inconclusive [inhibitor, single point].
With `CC(=O)N(CCC(Cc1ccccc1)c1ccco1)Cc1ccco1` (stereo unspecified) the Potency was inconclusive [inhibitor, single point].
In the case of `O=C(C(=O)N1CCc2ccccc2C1)c1c[nH]c2ccccc12`, the Potency is reported as “inactive”.
With `Cc1ccccc1NC(=O)c1ccc(NC(=O)C2CC(=O)OC23CCCCC3)cc1` (stereo unspecified) the Potency was “inactive”.
With `CCn1c(NC(=O)c2ccco2)c(-c2ccccc2Cl)c(=O)c2ccccc21` the Potency was inconclusive [inhibitor, partial curve].
For `CS(=O)(=O)N1CCC(C(=O)N2CCN(c3ccccc3)CC2)CC1`, the Potency was “inactive”.
For `Cc1ccc(Oc2ccc(C(=O)NCc3ccncc3)cc2)cc1`, the Potency was inconclusive [inhibitor, partial curve].
In the case of `CC1=CC(=O)C(Sc2ccc(C)cc2)=CC1=O`, the Potency is reported as active: 1.84 µM.
With `BrC(=C\c1ccccc1)/C=N/N1CCN(c2ccccn2)CC1` the Potency was active: 0.326 µM.
In the case of `COc1ccc(CCNC(=O)Cn2cc(C(=O)c3ccc(F)cc3)c(=O)c3ccc(C)nc32)cc1OC`, the Potency is reported as “inactive”.
With `O=C(COC(=O)c1cc2ccccc2cc1O)NC1CCCCC1` the Potency was inconclusive [inhibitor, partial curve].
In the case of `Cc1ccc(CNC(=O)CCC(=O)N2CCSc3ccccc32)cc1`, the Potency is reported as inconclusive [inhibitor, single point].
With `CN(C(=O)CSc1nnc(-c2ccc([N+](=O)[O-])cc2)o1)c1ccccc1` the Potency was active: 16.4 µM.
For `CC(C)(C)NC(=O)C(c1ccc(Cl)cc1)N(CCO)C(=O)c1snc(C(N)=O)c1N` (stereo unspecified), the Potency was active: 13 µM.
In the case of `CCCCOCCCNC(=O)N[C@H](C(=O)OC)C(C)C`, the Potency is reported as inconclusive [inhibitor, single point].
For `Cc1cccc(/C=C2\CCC(=C3SCCCS3)C2=O)c1`, the Potency was inconclusive [inhibitor, single point].
With `CC1CN(c2ccc([N+](=O)[O-])c(NCCOc3ccccc3)c2)CCN1` (stereo unspecified) the Potency was inconclusive [inhibitor, single point].
For `COc1ccc([C@@H]2CC(=O)c3c(O)cc(O[C@@H]4O[C@H](CO[C@@H]5O[C@@H](C)[C@H](O)[C@@H](O)[C@H]5O)[C@@H](O)[C@H](O)[C@H]4O)cc3O2)cc1O`, the Potency was inconclusive [inhibitor, single point].
In the case of `Cc1ccc(CNC(=O)CCCn2c(=O)c3ccccc3n(Cc3ccc(Cl)cc3)c2=O)cc1`, the Potency is reported as “inactive”.
In the case of `CCOC(=O)N(C)c1c(CC)nc2c(OCCC3CCCCC3)cccn12`, the Potency is reported as inconclusive [inhibitor, single point].
In the case of `Cc1ccc(CCN2CCN=C2Nc2ccccc2)cc1`, the Potency is reported as inconclusive [inhibitor, single point].
For `Cc1c(O)ccc(/C(Cc2ccc3ccccc3n2)=N\O)c1O`, the Potency was active: 20.6 µM.
In the case of `COCCCNC(=O)C1CCCN(c2nn3cc(-c4ccc(C)cc4)nc3s2)C1` (stereo unspecified), the Potency is reported as inconclusive [inhibitor, single point].
For `CCOc1ccccc1OCC(=O)Nc1cc(S(=O)(=O)N2CCCCC2)ccc1OC`, the Potency was inconclusive [inhibitor, single point].
For `S=C(Nc1cc(Cl)cc(Cl)c1)NC1CCN(Cc2ccccc2)CC1`, the Potency was active: 8.2 µM.
For `C[C@H]1CN([C@@H](C)CO)C(=O)CCCn2cc(nn2)CO[C@@H]1CN(C)S(=O)(=O)c1ccc(-c2ccccc2)cc1`, the Potency was “inactive”.
For `COc1ccccc1NC(=O)C1CCCN1C(=O)Nc1ccc(F)cc1` (stereo unspecified), the Potency was “inactive”.
For `NC1=NOC(=O)C1C1CCCCC1` (stereo unspecified), the Potency was inconclusive [inhibitor, single point].
With `COc1cc(C#Cc2ccc3cc(C(C)(C)O)oc(=O)c3c2)cc(OC)c1` the Potency was inconclusive [inhibitor, single point].
In the case of `CCOc1ccc(-c2noc(CSc3nnc(Cc4ccccc4)n3-c3cccc(C)c3)n2)cc1`, the Potency is reported as active: 18.4 µM.

Reference: PubChem BioAssay AID686979 (National Center for Advancing Translational Sciences (NCATS), 2013)
Potency means the concentration at half of the fitted maximal effect; tags describe the fitted curve by direction and shape.
